Assay results as given in PMC6128262 (Analytical chemistry, 2018).

What was measured:
HpMTAN-D198N [1] = target: T1, HpMTAN-D198N (Helicobacter pylori, UniProt Q9ZMY2, D198N); conditions: for Ki: read-out: Ki value (displacement of AdoHcy-TAMRA), 11.3 nM AdoHcy-TAMRA, 50 nM HpMTAN-D198N
HpMTAN-D198N [2] = target: T1, HpMTAN-D198N; test: biochemical

| Compound | Ki (HpMTAN-D198N [1]) | further results |
| --- | --- | --- |
| 5′-methylthioadenosine [MTA] | 0.0242 ± 0.0012 µM |  |
| Nc1ncnc2c1ncn2[C@@H]1O[C@H](COP(=O)(O)OP(=O)(O)O)[C@@H](O)[C@H]1O [ADP] | 15.2 ± 1.3 µM |  |
| Nc1ncnc2c1ncn2[C@@H]1O[C@H](COP(=O)(O)O)[C@@H](O)[C@H]1O [AMP] | 933 ± 66 µM |  |
| Nc1ncnc2c1ncn2[C@@H]1O[C@H](COP(=O)(O)OP(=O)(O)OP(=O)(O)O)[C@@H](O)[C@H]1O [ATP] |  | displacement of AdoHcy-TAMRA from HpMTAN-D198N (HpMTAN-D198N [1]; result in words): unable to displace AdoHcy-TAMRA |
| C[S+](CC[C@H](N)C(=O)[O-])C[C@H]1O[C@@H](n2cnc3c(N)ncnc32)[C@H](O)[C@@H]1O (some centres unmarked) [AdoMet, S-Adenosylmethionine] |  | Ki (HpMTAN-D198N [2]): 0.989 ± 0.16 µM |

Where two headings read alike, the source gives them in different places.
